Experimental data as given in the RNAGym collection of RNA variant scans (doi:10.7554/elife.90254).
Read counts are not given, so values of variants with three or more changes are uncertain.

B1: LINE1-mini (parent)
chain: GGCAGAGCUCAACACAGCGUGGCAAAGUGGCUGUGGCUAGACUGCC

Variants of: B1
Test: self-cleavage, relative activity (ratio to wild type); higher = more cleavage; in vitro, sequencing; the parent is a self-cleaving ribozyme

| Variant | self-cleavage |
| --- | --- |
| CGCAAAGCUCAACAAAGUGUGGCAAAGUGGCUGUGGCUGGACUGCC [G1C G5A C15A C18U A39G] | 0.01 |
| CGCAUAACUCACCACAGCGUGGCAAAGUGGCUGUGGCUUGACUGCC [G1C G5U G7A A12C A39U] | 0.01 |
| CGCAGAGCUCAACACAGCCUGGCAAAGUGGCUGUGGUUAGACUGCC [G1C G19C C37U] | 0 |
| CGCAGAGCUCAACACAGCGUGUCAAAGUGGCUGUGGCUAGAUUGCC [G1C G22U C42U] | 0.1 |
| CGCAGAGCUCAACACAGCGUGGCAAAGUGGCUGUUGCUAGACUGUC [G1C G35U C45U] | 0.03 |
| CGCAAAGCUCAUCACAGCGUGGCAAAGUGGCUGUGGCUAGACUACC [G1C G5A A12U G44A] | 0.01 |
| CGCACAGCUCAACACGGCGCGGCAUAUAGUCUGUGGCUAGACUGCC [G1C G5C A16G U20C A25U G27U U28A G30U] | 0.01 |
| CGCAUAGCUCAACACAGCGUGGCAAAGUGGCUGUGGCUAGACUGCG [G1C G5U C46G] | 0.06 |
| CGCAGAGCUCAACACAGCGUGGCAAAGUGGCUGUUGUUAGACUGCC [G1C G35U C37U] | 0.03 |
| CGCAGAGCUCAAUACAGCGUCCCAAAGUGGCUGUGGCUAGACUGCC [G1C C13U G21C G22C] | 0.03 |
| CGCAGAACACAACACAGCGUGGCAAAGUGGCUGUGGCUAGACUGCC [G1C G7A U9A] | 0.02 |
| CGCAGAACUCAACAAAGCGUGGCCAAGUGGCUGUGGCUAGACUCCC [G1C G7A C15A A24C G44C] | 0.16 |
| CGCAGAGCUCAACAAAGCGUGGGAAAGUGGCUGUGGCUACACUGCC [G1C C15A C23G G40C] | 0.02 |
| CGCAGAGCUCAACACAUCGUGGCAAAGUGGCUUUGACUAGACUGCG [G1C G17U G33U G36A C46G] | 0 |
| CGCAGAGCUCAACAAAGCGUGGCCAGGUGGCUGUGCCUAGACUGCU [G1C C15A A24C A26G G36C C46U] | 0.01 |
| CGCAGAGCUCAACACAGCGUGGAAAUGUGGCUGUGGCUAGACUGCC [G1C C23A A26U] | 0.36 |
| CGCAGAGCUCAAGACAGCGUGGCAAAGUGGCUGGGGCUAGAGUGCC [G1C C13G U34G C42G] | 0 |
| CGCAGAGCUCAACACAUCGUGGCAAAGGGGCUGUGGCUAAACUGCC [G1C G17U U28G G40A] | 0.01 |
| CGCAGAGCUCAACACAGCGUGGGAAAGUGGCUGUGGCUAGAGUGAC [G1C C23G C42G C45A] | 0.01 |

| Variant | self-cleavage |
| --- | --- |
| CGCACCGCUCAACACAGCGUGGCAAAGUGGCUGUGUCUAGACUGCC [G1C G5C A6C G36U] | 0.07 |
| CCCAGACCUUAACACAGCGUGGCAAUGUGGCUGUGGCUAGACUGCC [G1C G2C G7C C10U A26U] | 0.05 |
| CGCAGAGCUCAACACAGCGUAGGAGAGUGGGUGUGGCUAGACUGCC [G1C G21A C23G A25G C31G] | 0.01 |
| CGCAGAACUAAUCUCAGCGUGGCAAAGUGGCUGUGGCUAGACUGCC [G1C G7A C10A A12U A14U] | 0.02 |
| CGCAGAUCUCAACACAGCGUGGCAAAGUGGCUGUGGCUAGACUGGC [G1C G7U C45G] | 0.01 |
| CGCAGAGCUCAACACAGCAUGGCAAAGUGGCAGUGGCUAGACUGCC [G1C G19A U32A] | 0.03 |
| CUCAGACCUCAACACAGCGUGGCAAAGUCGCUGUGGCUAGACUGCC [G1C G2U G7C G29C] | 0.01 |
| CUCAGAGCUCAUCACAGCGUGGGAAAGUGGCUGUGGCUAGACUACC [G1C G2U A12U C23G G44A] | 0.23 |
| CGCAGAACGCAACACAGCGUCGCAAAGUAGCUGUGGCCCGACUGCC [G1C G7A U9G G21C G29A U38C A39C] | 0 |
| CGCAGAGCUCAACACAGCGUGGCAAAGUGGCUAUGGCUAAACUGCC [G1C G33A G40A] | 0.02 |
| CGCAUAGCUCAACACAGCGUGGCAAAGUCGCUGUGGCUAGACUGCC [G1C G5U G29C] | 0 |
| CGCAUAGCUCAACACAGCGUGGCAAAGUUGCUGUGGCUAGACUGCC [G1C G5U G29U] | 0.06 |
| CGCAGAGCUCAACACAGCGUGGCAAACUGGCUGUGGCCAGGCUGCC [G1C G27C U38C A41G] | 0.03 |
| CGCAGACCUCAACACAGCGUGGCAGAGUGGCUGUGGCUAGACUGCC [G1C G7C A25G] | 0.01 |
| CCCAGAGCUCAACACAGAGUGGCAAAGUGGGUGUGGCUAGCCUGCC [G1C G2C C18A C31G A41C] | 0.01 |
| CGCAGAGCUCAACACAGCGUAGCUAAGUGGCUGUGCCUAGACUGCC [G1C G21A A24U G36C] | 0.02 |
| CGCACAGCUCAACACAGCCUUGCAAAGUGGAUGUGGCUAGACUACC [G1C G5C G19C G21U C31A G44A] | 0.02 |
| CGCAGAGCCCAACAUAGCGUGGCAAAGUGGCUUUGGCUAGACUGCC [G1C U9C C15U G33U] | 0.01 |
| CGCAUAGCUCAACACAGAGUGGCAAAAUGGCUGUGGCUAGACAGCC [G1C G5U C18A G27A U43A] | 0 |

| Variant | self-cleavage |
| --- | --- |
| CGCAGAGCUCAACACAGCGUUGCAAAUUGGCUGUGGCUAGACUGCC [G1C G21U G27U] | 0.14 |
| CGCAAAGCUCAACACAGCGUGGCAAAGUGGCAGUGGCUAGACUGCA [G1C G5A U32A C46A] | 0.04 |
| CGCAGAGCUCAACAGAGCGUGGCAAAGUUGCUGUGGCUAGGCUGCC [G1C C15G G29U A41G] | 0.01 |
| CCCAGAGCUCAACACAGCAUGGCUAAGUGGGUGUGGCUAGACUGCC [G1C G2C G19A A24U C31G] | 0.08 |
| CGCAGAGCUCAACACAGCUUGGAAAAGUGGCUGUGGCAAGACUGCC [G1C G19U C23A U38A] | 0.01 |
| CGCAGAACUCAACACAGCGUGGCAAAGUGGCUGUGGCUAGACUUCC [G1C G7A G44U] | 0.12 |
| CGCAGAUCUCAAAACAGCGUGGCAAAGUGGCUGUGGCUAGACUUCC [G1C G7U C13A G44U] | 0.11 |
| CACAGAGCUCAACACAGCGUGCCAAAGGGGCUGUGGCUAGACUGCC [G1C G2A G22C U28G] | 0.64 |
| CGCAGAGCUCAACAAAACGUGGCAAAGUGGCUGUGGCUAGACUGCC [G1C C15A G17A] | 0.01 |
| CACAGAGCUCAACACAGCGUGGCAAAGUGUCUGUGGCUAGACUGCC [G1C G2A G30U] | 0.05 |
| CGCACAGCUCAACACAGCGUGGCAAAGUGGCUGUGUCUAGACUGCC [G1C G5C G36U] | 0.02 |
| CGCAGAGCUCAACACAGCGUUGCAAAGUGGCUGUGGCUAGACUGCG [G1C G21U C46G] | 0.06 |
| CACAGAGUUCUAUACAUCGUGGCAAAGUGGCUGUGGCUAGACUGCC [G1C G2A C8U A11U C13U G17U] | 0.01 |
| CCCAGAGAUCAACACAGCGUGGCAAGGUGUCUUUGGCUAGACUGCC [G1C G2C C8A A26G G30U G33U] | 0.05 |
| CGCAGAGCACAACACAGCGUGGCAAAGUGGCUGUGGUUAGACUGCU [G1C U9A C37U C46U] | 0.01 |
| CGCAGAGCGCAACACCGCGUGGCAAAGUGGCAGUGGCUAUACUGCU [G1C U9G A16C U32A G40U C46U] | 0.01 |
| CGCAGACCUCAACACAGCGUGGAAAAGUGGUUGUGGCUAGACUGCC [G1C G7C C23A C31U] | 0.03 |
| CGCAGAGCUCAACACAGCGUGGCAAACUGGCUGUGGCUAGACGGCC [G1C G27C U43G] | 0.01 |
